The whole screen tested about 150,000 compounds, of which about 540 (0.36%) showed an effect of 50% or more. This is one part of the list.
test system: Plasmodium falciparum; experiment: Primary screen in NF54 nanoGlo assay, in single point, at 2uM, 72h; a lower Z score goes with more inhibition; format: functional, Erythrocyte; conditions: timepoint 72 hour

| Compound | % Inhibition | Z score |
| --- | --- | --- |
| O=C(NC[C@H]1CCOC1)C1CCN(S(=O)(=O)c2ccc3c(c2)CCC3)CC1 | 15% | -1.96 |
| COC[C@H](NC(=O)c1csnc1C)c1ccc(Cl)cc1 | -4% | 0.43 |
| Fc1ccc(COc2ccc(CNc3nccs3)cc2)c(Cl)c1 | 32% | -3.58 |
| CC(C(=O)N1CCCCC1)N1CCC(c2ccccc2)C1 (centres undefined) | -10% | 1.4 |
| CCCC(C)(C)NC(=O)c1cc(OC)c(OC)c(OC)c1 | -10% | 1.42 |
| CC1C(NCC2CCN(C3CC3)C2)CC1c1ccccc1 (centres undefined) | -2% | 0.17 |
| Cc1ccc(C2=C[C@@H](c3ccccc3)n3nnnc3N2CC(=O)Nc2ccc(C)cc2C)cc1 | -9% | 0.93 |
| CCNc1nc(C(N)=O)c(NC(=O)c2ccccc2Br)s1 | -16% | 2.17 |
| O=C(CC(c1ccccc1)c1ccccc1)N1CCC[C@H](Oc2ccncc2)C1 | 4% | -0.6 |
| CC[C@H]1CN(S(=O)(=O)c2c(C)noc2C)CC[C@H]1CC(=O)N1CCC(C(=O)OC)CC1 | 33% | -3.83 |
| CCC(CC)C(=O)Nc1cc(Br)c(O)c(Br)c1 | 13% | -1.6 |
| Cn1cc(CN2CCC(C(=O)NCc3ccccc3F)CC2)c2cc(Cl)ccc21 | -11% | 1.4 |
| O=C(Nc1nnn[nH]1)c1ccc(OCC2CCCCC2)cc1 | -6% | 0.88 |
| COC(=O)C1(CNC(=O)C2CCC(F)(F)CC2)CCCCC1 | -6% | 1.04 |
| CC(C)c1nc(CC(=O)N2CC3CCCC(C3)C2)cs1 | 3% | -0.31 |
| Cc1noc(C)c1CN[C@H]1[C@H](O)[C@@H](n2cnc3ccccc32)[C@@H]2OC[C@H]1O2 | 4% | -0.69 |
| CC1(C)CCc2onc(CNC(=O)C[C@H]3CS(=O)(=O)c4ccccc4O3)c2C1 | 28% | -3.12 |
| Cc1cc(C)nc(N/C(=N/c2ccc(CC(=O)OC(C)C)cc2)NS(=O)(=O)c2ccc(Cl)cc2)n1 | 2% | -0.22 |
| Cc1c(NC(=O)c2ccc3ccccc3n2)cccc1-c1nnc2n1CCCCC2 | -4% | 0.52 |
| COC[C@@H](c1ccnn1C)n1cnc(-c2ccccc2)c1C=C(C)C | -4% | 0.71 |
| CN(C)C(=O)Cn1cnc(NC(=O)c2cn(C)nc2-c2ccco2)n1 | -9% | 1.75 |

| Compound | % Inhibition | Z score |
| --- | --- | --- |
| COc1ccc(CS(=O)(=O)CCC(=O)NC(C)(C)C)cc1F | -8% | 1.06 |
| CCCN1C[C@]23C=C[C@H](O2)[C@H](C(=O)NCc2cnn4cccnc24)[C@@H]3C1=O | -3% | 0.57 |
| C[C@@H](C(=O)NCCOc1ccccc1)N1C(=O)NC2(CCCC2)C1=O | -12% | 1.57 |
| COc1ccc2c(c1)N1CCN(Cc3ccc(F)cc3)CC1C(C(=O)Nc1ccc(F)cc1)C2 (centres undefined) | -4% | 0.45 |
| Cc1n[nH]c(C)c1CNC(=O)N1CCNC(=O)[C@@H]1c1ccc(F)cc1 | -10% | 1.59 |
| O=C(O)C1Cc2c([nH]c3ccccc23)C(c2c(O)ccc3ccccc23)N1 (centres undefined) | 4% | -0.34 |
| C#CCN1CCCC1C(O)C(F)(F)F (centres undefined) | 6% | -0.77 |
| Cc1cc(C)nc(NC(=O)c2occ3c2CCC3)n1 | -3% | 0.33 |
| COc1cccc(C(=O)NCC(=O)N2CC=C(c3ccccc3)C2)c1 | 31% | -1.08 |
| Cc1nc(CCC(=O)N2CCC[C@@]3(CCC(=O)N(CC4CC4)C3)C2)n[nH]1 | -6% | 0.61 |
| COc1ccccc1CN1C(=O)c2ccc(-c3ccccc3)n2C[C@@]1(C)C(=O)NC1CCCCC1 | -19% | 3.15 |
| CCCCN(CCO)C(=O)Nc1ccc(OC)c(Cl)c1 | -11% | 1.48 |
| O=C(c1cccnc1O)N1CC[C@@]2(CCCN(Cc3ccc(F)c(F)c3)C2=O)C1 | 2% | -0.34 |
| CCOC(=O)N1CCN(C(=N)C(F)(F)F)CC1 | 7% | -1.12 |
| CC(C)C(NC(=O)NC1CCC(=O)NC1C)C1(CO)CCCC1 (centres undefined) | -8% | 1.29 |
| CC1=C[C@@H](CNC(=O)c2ccccn2)[C@H](C(C)C)C[C@H]1CC(=O)NCCN1CCOCC1 | 19% | -2.2 |
| O=C(CNC1CCCCC1)N1CCc2ccccc2C1 | -1% | 0.09 |
| Cc1n[nH]c([C@H]2CCCN(Cc3nc4ncccn4n3)C2)n1 | -6% | 1.23 |
| CCC(C)[C@@H](NC(=O)Nc1cc(C)ccc1C)C(=O)OC (some centres undefined) | 1% | -0.1 |
| Cc1cccn2c(CNc3ccc(C(=O)NCCO)c(Cl)c3)cnc12 | -8% | 0.74 |
| Cc1csc2c(Oc3cncc(C(N)=O)c3)ncnc12 | -1% | 0.15 |

| Compound | % Inhibition | Z score |
| --- | --- | --- |
| COC(=O)CN1CCC2(CC1)C[C@@H](c1ccccc1)C(=O)N(C)C2 | 9% | -1.26 |
| CCCCOCCN(C(=O)CN(C)S(C)(=O)=O)c1ccc(Br)cc1 | 1% | -0.2 |
| Cc1cc(C)c(S(=O)(=O)N2CC(OCc3ccccc3Cl)C2)cc1C | -17% | 3.24 |
| O=C1OCCN1CCCNC1(c2ccc(F)cc2)CCC1 | -1% | 0.08 |
| Cc1nc([C@@H]2CCCN2Cc2ccc(-c3ccn[nH]3)o2)cs1 | 27% | -3.93 |
| CC(C)CC(=O)N1CCN(C(=O)c2ccncc2)[C@H]2CS(=O)(=O)C[C@H]21 | -23% | 2.33 |
| Cc1nc2nc(-c3cccs3)nn2c(C)c1CC(=O)NCCO | 5% | -0.56 |
| Cc1cc(C(=O)NC[C@H](C)N2CCc3ccccc32)cc(S(N)(=O)=O)c1C | 4% | -0.51 |
| O=C(O)C1(Oc2ccc(Cl)cc2)CCN(c2ncccn2)CC1 | -6% | 1.19 |
| Cc1cccc2c(=O)n(CCCC(=O)Nc3cc(C(F)(F)F)ccc3N3CCOCC3)cnc12 | -14% | 2.63 |
| CC[C@@H](C(=O)NCCN1CCOCC1)N(c1ccc(C)cc1)S(C)(=O)=O | -7% | 0.87 |
| Cc1cc(NC(=O)C(=O)NCc2ccc(Cn3cc(Cl)cn3)cc2)no1 | -5% | 0.68 |
| O=C1CC[C@@H](C(=O)Nc2cccc(Cn3cnc4ccccc43)c2)N1 | -20% | 2.84 |
| Cc1ccc2nc(NC(=O)[C@@H](NC(=O)c3ccccc3F)C(C)C)sc2c1 | -7% | 0.91 |
| CN(C)c1noc(CN(Cc2cccs2)CC(F)(F)F)n1 | 17% | -2.2 |
| CN(C)c1ncc(NS(=O)(=O)Cc2ccccc2)cn1 | -7% | 1.27 |
| O=C(O)[C@@H]1CC2(CCNCC2)CN1C(=O)c1scc2c1CCCC2 | -15% | 1.88 |
| CCc1nnc(CNC(=O)c2csc(C)c2)o1 | 1% | -0.18 |
| CCc1cc(CNC(=O)c2ccccc2NC(=O)[C@@H](C)CC)on1 | 1% | -0.15 |
| Cc1cc(=O)c(OCC(=O)Nc2ccc3c(c2)OCO3)c[nH]1 | -12% | 1.55 |
| CC(C)N(CCNC(=O)Nc1ccccn1)C1CC1 | -4% | 0.59 |

| Compound | % Inhibition | Z score |
| --- | --- | --- |
| O=C(CN1CCC[C@H]1c1ccncc1)Nc1ccc(Cl)cc1C(F)(F)F | -9% | 0.81 |
| Nc1c2c(-c3ccc(F)cc3)nc(NCc3cccc(F)c3)nc2nn1-c1ccccc1Cl | -22% | 2.78 |
| CCC[C@H](OC(=O)c1ccc(N(C)C)cc1)C(=O)Nc1cc(C)on1 | -2% | 0.21 |
| CCN1CC(C(=O)NC2(C)CCOC2C)CC1=O (centres undefined) | -22% | 4.44 |
| O=C(NC[C@@H]1C[C@@H](c2nnc[nH]2)C[C@@H]1O)c1ccsc1C(F)F | -1% | 0.27 |
| COC(=O)c1ccc(NC(=O)c2coc(NC(=O)c3cc(C)on3)n2)cc1 | 14% | -1.99 |
| CCc1ccccc1CC(=O)Nc1ccc(C[C@@H]2NC(=O)NC2=O)cc1 | -5% | 0.61 |
| O=C(NCc1ccccc1)N1CCCC[C@H]1c1nnc(-c2cnccn2)[nH]1 | 4% | -0.74 |
| C/C(=C\c1ccccc1)[C@@H]1CC(=O)Nc2n[nH]c(C3CCC3)c21 | -10% | 1.56 |
| Cc1cc(C)c(NC(=O)C2(N(C(=O)Cc3ccccc3)C3CC3)CCC3Cc4ccccc4CC3C2)c(C)c1 (centres undefined) | -16% | 1.83 |
| CN1C(=O)[C@@H]2CC[C@H]1CN(C(=O)Cc1ccncc1)C2 | -2% | 0.27 |
| CN1CCN(Cc2nnc(C3CCC3)n2C)c2cccnc21 | -13% | 1.66 |
| Cn1c(NC(=O)C2CCCCC2)c(-c2cccc3ccccc23)c(=O)c2ccccc21 | -6% | 0.8 |
| COc1ccc(N2CCC3(CC2)NCCc2[nH]cnc23)cc1 | -30% | 3.97 |
| OCCN1CCN(c2nc3nonc3nc2NCc2cccs2)CC1 | -4% | 0.58 |
| COc1cc(-c2nnsc2-c2nc3ccccc3[nH]2)cc(OC)c1OC | -12% | 2.13 |
| Brc1ccccc1C1(CNc2ncccn2)CC1 | -5% | 0.81 |
| CC(C)c1ccc(CN2C[C@@H](CN3CCN(C)CC3)[C@@H](CO)C2)cc1 | 8% | -1.26 |
| CC(C)(CO)CN1CCC[C@H](N2CCc3ccccc3C2)C1 | -9% | 1.13 |

Reference: ChEMBL document CHEMBL4888484, “Replenishing the malaria drug discovery pipeline: Screening and hit evaluation of the MMV Hit Generation Library 1 (HGL1) against asexual blood stage Plasmodium falciparum ,using a nano luciferase reporter read-out” (2022)
